Data as given in PMC12136788.
The list shows a part of the results.

T1: UNK ZnF1-3 (human, UniProt Q9C0B0 31-174)
T1 sequence: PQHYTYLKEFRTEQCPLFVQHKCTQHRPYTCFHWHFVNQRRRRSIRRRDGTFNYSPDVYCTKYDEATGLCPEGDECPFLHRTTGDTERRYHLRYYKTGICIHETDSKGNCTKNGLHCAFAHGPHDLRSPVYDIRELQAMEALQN

B1: chr1:109474883:109474884:-_ENSG00000121940_ENST00000369970|hu_hu|FALSE|FALSE (ssRNA)
RNA: GGGAGUUCUACAGUCCGACGAUCGGAGGUUGCAGUGAGCCGAGAUUGUACCACCUCACUCCAGCCUGGGUGACAGAGCAAAACUCUCAAAAAAAAGUAAAAUUUCAAAAAAGCUUCACAAUAUAAACCUUAAUUUUAAUGACACAACAGAGGAUUGAGCAUCA
B2: chr22:32879901:32879902:+_ENSG00000100225_ENST00000397426|hu_mus|hu_hu_hu_mus_False|38_58 (ssRNA)
RNA: GGGAGUUCUACAGUCCGACGAUCCUCUUCCAUACUCAUGGCAUCCUGAAUUGACUCAGCUUCAACAUUUUGACUAGGCCCUAACAUACUGUCAUCAUUCCAAACACCAAAUGGGGUGGCCUGUCCUUGGGAUGAAUCAGUCCCCAACAGAGGAUUGAGCAUCA
B3: chr4:25749455:25749456:-_ENSG00000091490_ENST00000264868|hu_hu|hu_hu_hu_mus_False|1_8 (ssRNA)
RNA: GGGAGUUCUACAGUCCGACGAUCGCACUAUGACCUCUAGAAAAAUCCACAGGGGGAAAAAAUGUAAACCAAUGUACAAUGUUAUCGCCUUCCCUGUGUGUGGAGUGUUUGUCUCAAGGCUCCUUCUUGCCUUAUAACUGCUAGCAACAGAGGAUUGAGCAUCA
B4: 156817637_156819921_3628_CDS_ENSG00000055163_ENST00000521420|human|control|control (ssRNA)
RNA: GGGAGUUCUACAGUCCGACGAUCCAUGUAUUUGUUCAGGAUGGCAAAAACCUCAUUGUUCAAGAUCUGAUACUUCCUGAUCCGGUCGGCCAUCUUCUUCAGGGGCACAUUCUUAAUGAUUUCAUCCUUCCCGUCCUGCCUCUGCAACAGAGGAUUGAGCAUCA
B5: 34520397_34521566_398_CDS_ENSMUSG00000037235_ENSMUST00000042701|mouse|control|control (ssRNA)
RNA: GGGAGUUCUACAGUCCGACGAUCCUCCUCCAGUUUCUUGAUGUGCAUCUUAGCACGCUUCAGAAGGCUCAGAGUAGUGUGACGUGUGCUGUCAGGGCCCAGGGGUACCAGCUGCUUGAGCUGCUCCAAGUAGAGCCUGAGUUUCAACAGAGGAUUGAGCAUCA
B6: chr1:171562549:171562550:+_ENSG00000117523_ENST00000495585|hu_hu|FALSE|FALSE (ssRNA)
RNA: GGGAGUUCUACAGUCCGACGAUCUGUAGAUAAGACCUUACAUAUUUAAUACAGUGCGUUACCCCUGUACAAAUGGAAAAAAAUUAAGUUUAACGUUUCUAGACCAAUAUGGCUGUUAAUUUCUGUACAAUGCCAACUCAACACCAACAGAGGAUUGAGCAUCA

target: T1, UNK ZnF1-3; experiment: nsRBNS (natural sequence RNA bind-n-seq); RBNS binding buffer (assumed for nsRBNS): 25 mM Tris pH 7.5, 150 mM KCl, 3 mM MgCl2, 0.01% Triton X-100, 500 ug/ml BSA, 20 U/ml SUPERase-In, 4 C; UNK is unkempt and MSI1 is Musashi-1; names of the RNAs are library labels; protein concentration not given here; high values mean tight binding

Binder	binding signal [enrichment R]
B1	1.09
B2	1.21
B3	0.855
B4	0.619
B5	0.787
B6	0.867
